The numbers were not newly measured in US6037348A (priority 1997, dated 2000), which cites them from elsewhere.

Data set [1] deals with influenza A virus. The conditions noted are these: cited from earlier work.
In data set [2] the test system is influenza A virus. The note with it: plaque reduction assay; cited from earlier work. A general note: Plaques are areas of infected cells; plaque reduction assays count them against a control.
Where [3] appears, read: human volunteers infected with wild-type influenza virus.

With `NC12CC3CC(CC(C3)C1)C2` [Amantadine, amantadine, reference compound], in data set [1] (administered within forty-eight hours of onset of clinical symptoms), the “duration of fever and other systemic complaints” value is listed as “effective in reducing the duration of fever”. In data set [1] (setting [3]), the “decrease of virus titer in nasal washes” value is recorded as “one hundred-fold decrease” and the fever score entry is “dramatic decrease in fever score”. The “in vitro inhibition of influenza A virus” value in data set [2] is listed as “potent in vitro inhibitor”.
